# Experimental data: article PMC4336329 (PLoS ONE, 2015)
# Screen size: about 310,000 compounds; about 14,000 (4.5%) showed an effect of 50% or more. Effects have a minus sign here. This is one part of the list.
# Molecular target: human ether-à-go-go-related gene (hERG) potassium channel (human, UniProt Q12809)
# Test: primary screen, population patch clamp on CHO cells stably expressing hERG
# 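Also: peak tail current of the secondary pulse compared with the same well before compound.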
# Chain of human ether-à-go-go-related gene (hERG) potassium channel (Q12809 whole entry, looked up): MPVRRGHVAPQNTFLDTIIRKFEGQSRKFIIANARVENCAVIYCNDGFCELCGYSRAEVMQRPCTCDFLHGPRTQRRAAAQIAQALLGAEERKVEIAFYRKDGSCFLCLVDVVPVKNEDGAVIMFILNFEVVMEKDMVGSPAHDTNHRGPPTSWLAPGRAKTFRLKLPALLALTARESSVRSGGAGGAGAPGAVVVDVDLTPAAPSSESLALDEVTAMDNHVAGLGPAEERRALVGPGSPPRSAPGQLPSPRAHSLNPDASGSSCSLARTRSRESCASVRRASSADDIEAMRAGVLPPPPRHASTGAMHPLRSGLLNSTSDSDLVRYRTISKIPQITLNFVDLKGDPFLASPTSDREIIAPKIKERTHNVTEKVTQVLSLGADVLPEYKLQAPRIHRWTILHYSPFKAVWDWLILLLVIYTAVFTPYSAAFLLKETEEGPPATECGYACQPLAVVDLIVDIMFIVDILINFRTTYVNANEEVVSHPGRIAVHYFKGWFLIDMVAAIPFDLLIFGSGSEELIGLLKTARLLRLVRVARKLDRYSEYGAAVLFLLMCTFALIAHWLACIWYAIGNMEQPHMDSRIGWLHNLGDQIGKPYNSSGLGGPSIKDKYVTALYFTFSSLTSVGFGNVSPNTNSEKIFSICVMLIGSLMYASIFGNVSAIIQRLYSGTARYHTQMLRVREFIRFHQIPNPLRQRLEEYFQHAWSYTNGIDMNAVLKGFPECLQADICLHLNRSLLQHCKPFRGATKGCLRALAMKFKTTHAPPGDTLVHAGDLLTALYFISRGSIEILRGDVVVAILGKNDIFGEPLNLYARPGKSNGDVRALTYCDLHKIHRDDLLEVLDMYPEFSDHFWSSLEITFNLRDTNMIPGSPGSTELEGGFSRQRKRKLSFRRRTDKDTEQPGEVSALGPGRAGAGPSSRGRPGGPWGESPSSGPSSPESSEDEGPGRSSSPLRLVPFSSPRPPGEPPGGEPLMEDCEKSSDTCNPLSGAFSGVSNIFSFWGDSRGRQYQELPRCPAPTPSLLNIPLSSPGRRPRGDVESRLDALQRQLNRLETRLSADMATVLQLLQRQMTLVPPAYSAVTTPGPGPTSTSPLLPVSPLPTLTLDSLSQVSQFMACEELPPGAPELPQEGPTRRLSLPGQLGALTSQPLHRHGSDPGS
row,SMILES,"hERG current change (%, negative = inhibition) at 10uM"
1,Cc1cccc(/N=C/c2ccccn2)n1,2.53%
2,COc1ccc(CNC(=O)CNC(=O)CNS(=O)(=O)c2ccc(C)c(C)c2)cc1,13.2%
3,O=C(NNC(=O)c1ccc(-c2ccccc2)cc1)Nc1ccc(F)cc1F,19.8%
4,CCc1ccc(NC(=O)c2cc(-c3ccc(OC)cc3)on2)cc1,-0.467%
5,O=C(NCc1cccc(C(F)(F)F)c1)c1cccc(S(=O)(=O)N2CCN(Cc3ccccc3)CC2)c1,11.9%
6,COc1ccccc1NC(=O)CSc1nccn1Cc1ccccc1,-8.03%
7,CCN1CCN(c2ccc(N3CCN(C(=O)c4ccc(Br)o4)CC3)nn2)CC1,-71.5%
8,N#CCCn1cc(C(=O)Nc2ccc([N+](=O)[O-])cc2)c(-c2cccs2)n1,-59.7%
9,O=C(CC1C(=O)NCCN1C(=O)c1ccc(Cl)cc1)Nc1ccc(F)cc1 (stereo not shown),-12.2%
10,CC(=O)NC(NC(C)=O)c1cccc(OCc2ccccc2)c1,9.33%
11,COc1cc(C(=O)Nc2scc(-c3ccc(C)cc3)c2C(=O)O)cc(OC)c1OC,27.2%
12,COc1ccc(Nc2c(-c3ccc(C)cc3)nc3cnccn23)cc1,-24.5%
13,Cc1cccc(NC(=O)COC(=O)c2ccccn2)c1,19.2%
14,CCOC(=O)C1=NOC(C(=O)NN(C)c2ncc(C(F)(F)F)cc2Cl)C1 (stereo not shown),5.69%
15,COc1ccc(C2c3c(-c4cc(Cl)c(C)cc4O)n[nH]c3C(=O)N2Cc2cccnc2)cc1OC (stereo not shown),7.02%
16,CC(C)CC1NC(=O)N(CC(=O)Nc2ccccc2-c2ccccc2)C1=O (stereo not shown),-41%
17,CCC(=O)Nc1ccc(N2CCN(C(=O)c3cccs3)CC2)cc1,-7.15%
18,Cc1nn(CC(=O)N2CCCC2)c(=O)c2nn(-c3ccccc3)c(C)c12,9.64%
19,CN(C)c1ccc(/C=N/NC(=O)C[n+]2ccccc2)cc1.[Cl-],15.5%
20,CN1CCN(C(=O)C2=C[C@@H](c3ccccc3)C[C@@H](OCc3ccc(CO)cc3)O2)CC1,-13.2%
21,O=C(Nc1ccc(Oc2ccc3ccccc3c2)cc1)c1ccco1,4.72%
22,COc1cc2c(cc1NC(=O)c1cccc(Br)c1)CCCC2,-1.68%

row,SMILES,"hERG current change (%, negative = inhibition) at 10uM"
1,O=C(O)C1C2C=CC(C2)C1C(=O)NCCc1ccccc1 (stereo not shown),4.05%
2,O=C(COC(=O)c1cccnc1SC(F)F)NC1CC1,-9.64%
3,COc1cc(-c2cccs2)cc(=O)c2c(C)oc(C)c12,-8.27%
4,COc1cc(OC)c(C2=NOC(C(=O)N3CCN(C(=O)c4ccco4)CC3)C2)cc1Cl (stereo not shown),-35.3%
5,CC(C)Sc1cc(Cl)nc(NC(=O)Nc2ccccc2)n1,20%
6,Cc1ccc(/C=N\Nc2nc3ccc(Cl)cc3[nH]2)o1,-8.39%
7,COc1ccc(NC(=O)COC(=O)CCNS(=O)(=O)c2ccc(Cl)cc2)cc1,-23.2%
8,O=C(Nc1ccc2nc(-c3ccco3)c(-c3ccco3)nc2c1)N1CCN(c2ccccn2)CC1,-31.5%
9,O=C(Cc1cc(=O)[nH][nH]1)N/N=C/c1cccc2ccccc12,11.4%
10,COc1ccc(NC(=O)NNC(=O)C(C)Oc2ccc3ccccc3c2)cc1 (stereo not shown),8.34%
11,CSc1ccccc1C(=O)NCCS(=O)(=O)N1CCN(c2ccc(F)cc2)CC1,-67.6%
12,CCCCOC(=O)NC(NCC(O)c1ccccc1)(C(F)(F)F)C(F)(F)F (stereo not shown),6.78%
13,CCOC(=O)NC(Nc1sc2c(c1C(N)=O)CCCC2)(C(=O)OCC)C(F)(F)F (stereo not shown),-13.4%
14,CSc1ccc(C(=O)/C=C/c2ccc(N)cc2)cc1,11.3%
15,COc1ccc(CNC(=O)CN(C)S(=O)(=O)c2ccc3c(c2)n(C)c(=O)c(=O)n3C)cc1,17.4%
16,COc1ccc(NC(=O)CSc2nnc(-c3ccccn3)n2-c2ccccc2)cc1OC,-10.1%
17,CCOc1ccc(NC(=S)NCCCn2ccnc2)cc1,-14.2%
18,O=C(COc1ccc(/C=N/NS(=O)(=O)c2ccccc2)cc1)Nc1ccccc1,-22.4%
19,CC1(c2ccc(OC(F)F)cc2)NC(=O)N(CC(=O)NCCC2=CCCCC2)C1=O (stereo not shown),-12.7%
20,CCCCC(=O)OCC(=O)N1N=C(c2c[nH]c3ccccc23)C(O)C1c1ccc(OC)cc1 (stereo not shown),19.5%
21,CCNS(=O)(=O)c1ccc(C(=O)OCC(=O)N2CCCc3ccccc32)cc1,-45%
22,Fc1ccc(-c2nc(-c3cccs3)[nH]c2-c2ccc(F)cc2)cc1,0.797%

row,SMILES,"hERG current change (%, negative = inhibition) at 10uM"
1,Cc1cc(Cl)c(OCCCN(C)C)c(Br)c1.O=C(O)C(=O)O,-40.4%
2,CCOc1ncccc1C(=O)NCCc1ccc(S(N)(=O)=O)cc1,5.54%
3,CC(C)C1N(C(=O)CN2CCCCC2)CCN1S(=O)(=O)c1ccccc1 (stereo not shown),8.02%
4,COC(=O)C1=C(C)N(CCCC(=O)O)C(=O)NC1c1ccc(C(F)(F)F)cc1 (stereo not shown),-9.41%
5,CC1(C)CC(=O)C2=C(C1)N=C1SCCC(=O)N1C2c1cccc([N+](=O)[O-])c1 (stereo not shown),-21.1%
6,COc1cc(OC)cc(C(=O)NC(=S)NNC(=O)Cc2cccs2)c1,17.4%
7,N#CCCN(Cc1cccnc1)C(=O)Nc1ccccc1,-3.06%
8,Cc1ccc(C)c(OCc2cc(C(=O)N3CCN(c4ccccc4C)CC3C)no2)c1 (stereo not shown),-2.69%
9,COC(CNC(=O)CC1C(=O)N(Cc2ccccc2)C(C)c2nc3ccccc3n21)OC (stereo not shown),9.2%
10,CCN1CCN(C(=O)Cn2cnc3sc(C)c(S(=O)(=O)N4CCN(c5ncccn5)CC4)c3c2=O)CC1,14.6%
11,CCOC(=O)N/N=C/c1c(C)nn(-c2cccc(C(F)(F)F)c2)c1Cl,-10.3%
12,Cc1ccsc1/C=C1\Oc2cc(OCC(=O)c3ccccc3)ccc2C1=O,2.64%
13,Cc1cccc(NS(=O)(=O)c2cccc(C(=O)NCc3ccccc3CN3CCOCC3)c2)c1,-26%
14,O=C(NCCc1c[nH]c2ccccc12)C(=O)NCC(c1ccco1)N1CCN(c2ccc(F)cc2)CC1 (stereo not shown),7.65%
15,COc1cccc(CNC(=O)C2CCCN(c3nc4ccccc4o3)C2)c1 (stereo not shown),-16.9%
16,CCCN1C(=O)c2cc(C(=O)Nc3ccccc3CC)ccc2C1O (stereo not shown),2.3%
17,CCC(C)c1ccc(OCCN2CCCC2)cc1 (stereo not shown),-15.4%
18,C=CCn1c(SCC(=O)N2CCc3ccccc3C2)nc2sc(C)c(C)c2c1=O,-16.9%
19,Cc1nn(C(C)C(=O)Nc2ccccc2Cl)c(=O)c2nn(-c3ccccc3)c(C)c12 (stereo not shown),-29%
20,C=CCN1C(=O)NC(=O)/C(=C/c2cc3c4c(c2)CCCN4CCC3)C1=O,-10.2%
21,O=C(N/N=C/c1ccccc1F)c1cccc(NC(=O)c2ccccc2Cl)c1,-11.2%
22,Cc1cccc(N(CC(=O)N/N=C/c2cc([N+](=O)[O-])ccc2Cl)S(C)(=O)=O)c1C,-15.1%

row,SMILES,"hERG current change (%, negative = inhibition) at 10uM"
1,Cc1ccc(C)c(OCC(=O)O/N=C(\N)c2cccnc2)c1,2.74%
2,O=S(=O)(Cc1ccccc1Cl)N1CCCCC1,1.5%
3,NC(=O)C1CCN(C(=O)c2ccc3nc(-c4ccccc4)c(-c4ccccc4)nc3c2)CC1,-20%
4,C1CCC(C(CC2CCCCN2)C2CCCCC2)CC1.O=C(O)/C=C\C(=O)O (stereo not shown),-22.6%
5,CCOC(=O)C1CCN(C(=O)c2ccc(OCC)c(OCC)c2)CC1,-79.4%
6,CCNc1nc(NCC)n2c(SCC(=O)Nc3ccc(NC(C)=O)cc3)nnc2n1,-17.8%
7,COc1ccc(C(=O)C2CCN(C(=S)Nc3ccc(F)cc3)CC2)cc1,-46.9%
8,Cc1ccc(Sc2ccc(N)cn2)cc1,10.4%
9,CC(C)=CCc1c(O)cc2c(c1O)C(=O)CC(c1ccc(O)cc1)O2 (stereo not shown),1.34%
10,O=C1C(c2ccncc2)=C(O)c2ccccc21,1.47%
11,CN(CC(=O)NCc1ccccc1Cl)S(=O)(=O)c1ccc2c(c1)n(C)c(=O)c(=O)n2C,10.1%
12,COc1ccc(CN2CCNC(=O)C2CC(=O)N(C)Cc2nccn2C)cc1OC (stereo not shown),17.3%
13,Nc1nnc(COc2cccc(C(F)(F)F)c2)s1,0.784%
14,Cc1ccc(CNC(=O)COC(=O)Cn2nc(C)c([N+](=O)[O-])c2C)cc1,-16.3%
15,O=C(CCS(=O)(=O)c1ccc(Br)cc1)Nc1ccccc1Cl,21%
16,O=C(Nc1cccnc1)c1cccc([N+](=O)[O-])c1,4.96%
17,CCn1c(C)c(C)c2cc(C(=O)NCCCN3CCCCC3)ccc21,-12.8%
18,Cn1/c(=N/N=C/c2ccc(N3CCOCC3)cc2)sc2ccccc21,2.81%
19,CC(C)(C)NC[C@@H](O)COc1cccc2c1CCCC2=O.Cl,-3.34%
